Results from PubChem BioAssay (NCATS).
The shares of active, inactive and inconclusive entries below differ from those in the screen. A call without a number means that no potency is given here. Where the call is inconclusive, the potency comes from a doubtful curve fit. Activity calls are given as the source filed them. Calls follow the shape of the dose curve; as a rule, active = well fitted inhibition curve with a large enough effect; inconclusive = small, poorly fitted or top-dose-only effect; inactive = no such curve, though single readings can be large or run the other way.

Biological target: Retinaldehyde dehydrogenase 3 (Homo sapiens) (UniProt P47895)
Assay: qHTS for Inhibitors of the Aldehyde Dehydrogenase Family (ALDH1A3) Primary screen (AID 2061315)
Conditions: ALDH inhibition qHTS; series mostly up to 56 µM
Potency is read from the fitted curve at half-maximal effect; tags tell the direction and shape of the fitted curve.

SMILES	Potency
CC(CNS(=O)(=O)C(C)C)c1ccc(-c2ccc(C#N)cc2)cc1 (centres undefined)	inconclusive: 5.01 µM [inhibitor, full curve]
CC1(C)CC[C@]2(C(=O)O[C@@H]3O[C@H](CO)[C@@H](O)[C@H](O)[C@H]3O)CC[C@]3(C)C(=CCC4[C@@]5(C)C[C@@H](O)[C@H](O)C(C)(C)C5[C@H](O)C[C@]43C)[C@@H]2[C@@H]1O (some centres undefined)	inconclusive: 0.0794 µM [inhibitor, full curve, poor fit]
O=C(OCC(O)CO[C@@H]1O[C@H](C(=O)O)[C@@H](O)[C@H](O)[C@H]1O)c1ccccc1 (some centres undefined)	inactive
CN1CCOc2ccc(S(=O)(=O)N3CCN(S(=O)(=O)c4c(F)cccc4F)CC3)cc21	inactive
